# Article PMC4336329 (PLoS ONE, 2015)
# The whole screen tested about 310,000 compounds, of which about 2,200 (0.71%) showed an effect of 50% or more. Effects have a minus sign here. Some of the results follow.
# Target: human ether-à-go-go-related gene (hERG) potassium channel (human, UniProt Q12809)
# Assay: primary screen, population patch clamp on CHO cells stably expressing hERG
# Chain of human ether-à-go-go-related gene (hERG) potassium channel (Q12809 whole entry, looked up): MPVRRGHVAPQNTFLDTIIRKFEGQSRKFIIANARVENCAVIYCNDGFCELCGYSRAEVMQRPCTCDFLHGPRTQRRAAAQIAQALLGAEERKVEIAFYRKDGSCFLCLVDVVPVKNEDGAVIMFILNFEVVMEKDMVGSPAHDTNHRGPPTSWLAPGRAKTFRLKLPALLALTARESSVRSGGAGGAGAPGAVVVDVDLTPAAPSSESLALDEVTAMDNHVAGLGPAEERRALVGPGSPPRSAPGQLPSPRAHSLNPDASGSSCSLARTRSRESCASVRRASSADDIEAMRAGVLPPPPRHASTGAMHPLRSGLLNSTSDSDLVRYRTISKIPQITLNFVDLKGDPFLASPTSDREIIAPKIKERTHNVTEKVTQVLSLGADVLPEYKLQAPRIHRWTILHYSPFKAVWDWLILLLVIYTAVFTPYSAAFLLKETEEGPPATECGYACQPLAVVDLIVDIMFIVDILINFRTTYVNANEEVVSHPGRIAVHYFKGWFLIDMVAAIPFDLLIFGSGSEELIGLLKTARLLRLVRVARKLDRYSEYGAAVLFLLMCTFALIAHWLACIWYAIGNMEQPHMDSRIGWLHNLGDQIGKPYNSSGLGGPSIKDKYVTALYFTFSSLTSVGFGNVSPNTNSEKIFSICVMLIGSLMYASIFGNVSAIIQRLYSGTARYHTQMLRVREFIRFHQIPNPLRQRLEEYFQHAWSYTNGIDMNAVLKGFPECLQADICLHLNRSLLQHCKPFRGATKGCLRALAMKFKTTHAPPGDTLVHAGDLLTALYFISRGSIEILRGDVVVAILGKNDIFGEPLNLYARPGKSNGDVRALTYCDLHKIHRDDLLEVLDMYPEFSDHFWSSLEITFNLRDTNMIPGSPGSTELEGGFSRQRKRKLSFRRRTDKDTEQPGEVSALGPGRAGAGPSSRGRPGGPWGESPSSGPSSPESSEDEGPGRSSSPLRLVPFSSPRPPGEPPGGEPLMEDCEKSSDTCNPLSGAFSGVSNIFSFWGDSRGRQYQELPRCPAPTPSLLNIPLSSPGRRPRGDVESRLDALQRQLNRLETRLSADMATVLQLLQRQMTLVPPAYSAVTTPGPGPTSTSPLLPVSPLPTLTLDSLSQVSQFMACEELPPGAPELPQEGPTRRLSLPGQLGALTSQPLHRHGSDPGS
row,Compound,"hERG current change (%, negative = inhibition) at 1uM [%]"
1,CCOC(=O)C1=C(N)Oc2c(c(=O)[nH]c3ccccc23)C1c1ccccc1 (centres unmarked),8.82
2,O=S(=O)(NCc1cn2ccccc2n1)c1cccs1,7.56
3,Cc1cccc(CSCc2nnc(N)s2)c1,3.45
4,COc1ccc(/C=C(\NC(=O)c2ccccc2)C(=O)N/N=C/c2cccnc2)cc1,6.5
5,O=C(O)c1nc(NCCc2ccccc2)ncc1Cl,13.3
6,CCn1cc(CNc2nc3nonc3nc2N2CCCCC2)cn1,2.1
7,CC(NC(=O)c1ccco1)C(=O)OC(C)C(=O)NCc1ccccc1 (centres unmarked),8.37
8,COc1ccccc1C(=O)NC(CCSC)C(=O)NNC(=O)c1ccc(F)cc1 (centres unmarked),13.3
9,COc1ccc(OC)c(N/C=C/C(=O)c2ccccc2)c1,12.9
10,O=C(CCN1CCCCC1)Nn1c(=S)[nH]c2ccccc2c1=O,12
11,Cc1cc(/C=C2/SC(=O)N(CC(=O)OC(C)C)C2=O)c(C)n1C,5.09
12,CCc1nonc1NC(=O)c1oc2ccc(Br)cc2c1C,10.9
13,COc1cccc(N(CC(=O)N2CCN(c3ccccc3OC)CC2)S(C)(=O)=O)c1,14.5
14,C=C(C)Cn1c(C)cc(C)c(S(=O)(=O)c2ccccc2C)c1=O,17.7
15,O=C(NN1C(=O)NC2(CCCCC2)C1=O)c1cc2ccccc2o1,29.1
16,O=C(NCc1cccnc1)c1ccc(CN2CCc3ccccc3C2)cc1,12.9
17,N/C(=N\[N+](=O)[O-])N1CCN(C(=O)c2ccccn2)CC1,10
18,O=C(NCc1ccccc1)C(c1ccccc1)N(C(=O)c1csnn1)c1ccccc1 (centres unmarked),3.01
19,COc1cc2c(c3oc(-c4ccccc4)cc(=O)c13)C=CC(C)(C)O2,-5.53
20,Cc1ccc(S(=O)(=O)c2cnc(-c3ccccc3)nc2N2CCCCC2)cc1,-3.59
21,CSCCC(NS(=O)(=O)c1ccc(C)cc1)C(=O)N1CCCC1 (centres unmarked),12.5
22,CCN(CC)S(=O)(=O)c1ccc(N2CCOCC2)c(NCC(=O)Nc2ccc(F)cc2)c1,13.7
23,O=C(NC1CCCCCC1)C1CCN(S(=O)(=O)N2CCC3(CC2)OCCO3)CC1,11.9

row,Compound,"hERG current change (%, negative = inhibition) at 1uM [%]"
1,CCOC(=O)c1nsnc1NCCCl,2.67
2,O=S(=O)(c1ccc(OCC(O)CN2CCC(Cc3ccccc3)CC2)cc1)N1CCOCC1 (centres unmarked),-10.3
3,COc1ccc2oc(=O)c(C(=O)N3CCc4ccccc43)cc2c1,10.1
4,Cc1c(C(O)CN2CCN(Cc3ccc4c(c3)OCO4)CC2)c2ccccc2n1C (centres unmarked),-46
5,NC(=O)c1ccsc1NC(=O)c1ccc2c(c1)CCCC2,11.7
6,COC(=O)CSc1nnc(C)n1-c1cccc(OC)c1,5.92
7,O=C(c1ccc2c(c1)N(Cc1ccccc1)C(=O)CS2)N1CCOCC1,1.45
8,CCn1cc(CNC(=O)/C=C/c2ccc([N+](=O)[O-])cc2)c(C)n1,-7.18
9,COc1ccc(-c2cc(=NCC(=O)O)c3ccccc3o2)cc1.[O-][Cl+3]([O-])([O-])O,2.51
10,COCC1CCCCN1Cc1cn[nH]c1-c1ccc2cc(OC)ccc2c1 (centres unmarked),-43.9
11,O=C(Nc1ccc(F)cc1)c1cccc(N2C(=O)C3C4C=CC(C4)C3C2=O)c1 (centres unmarked),-0.156
12,Cc1ccccc1NC(=O)N1CCN(c2ncccn2)CC1,8.62
13,Cn1c(=O)[nH]c(=O)c2c1nc(Br)n2CC(O)c1ccccc1 (centres unmarked),12.6
14,CC(Cc1ccccc1)C(=O)NCCO (centres unmarked),13.5
15,c1ccc(C(c2ccccc2)c2nc(-c3cccnc3)no2)cc1,7.91
16,CCCC1OC23CCCCC2C(C#N)(C#N)C1(C#N)C(=N)O3 (centres unmarked),0.185
17,O=C(O)CCn1cc(C=C2C(=O)NC(=S)NC2=O)c(-c2ccccc2)n1,15.5
18,O=S(=O)(Nc1nnc(C(F)(F)F)s1)c1ccc(Cl)cc1,10.5
19,CCCCN=C(Nc1ccc(Cl)cc1)c1cccnc1,15.7
20,O=C(Cn1cc(C(=O)COc2ccccc2)c2ccccc21)NCc1ccco1,5.03
21,COc1ccc(Cc2nc3ccc(C(=O)NCCc4cccc(C)n4)cc3o2)cc1,5.65
22,CN1C(C(=O)NCc2ccc(OC(F)(F)F)cc2)CC2Cn3c(nc4ccccc43)C21 (centres unmarked),-74.9
23,CCCCC(=O)N(CCC)CCC,8.41

row,Compound,"hERG current change (%, negative = inhibition) at 1uM [%]"
1,Cc1ccc(CCC(=O)Nc2ccc(C#N)cc2)o1,9.46
2,COC(=O)c1ccccc1NC(=O)Oc1ccc(C(C)C)cc1,0.839
3,O=S(=O)(/C=C/c1ccccc1)N1CCN(Cc2ccccc2)CC1,11.6
4,CCCSc1nnc(CNC(=O)C23CC4CC(CC(C4)C2)C3)n1Cc1ccccc1,12.2
5,CC1(C)OC(=O)C(=Cc2ccc(-c3ccc(Cl)c(C(=O)O)c3)o2)C(=O)O1,8.14
6,O=C(O)CCCN1C(=O)C2C3c4ccccc4C(c4ccccc43)[C@@H]2C1=O (some centres unmarked),14.1
7,COc1ccc(NC(=O)c2cc(S(=O)(=O)N3CCCC3)cn2C)cc1Cl,9.44
8,Cc1cc(C)c(C)c(S(=O)(=O)NCC(=O)N2CCCC2)c1C,9
9,COc1ccc(N2CC(NS(=O)(=O)c3cccnc3)CC2=O)cc1OC (centres unmarked),28.9
10,COc1ccc(Cc2nc3ccccc3n2CC(=O)N/N=C/c2ccccc2)cc1OC,12.6
11,Cc1ccccc1NC(=O)/C(=C\c1cccs1)NC(=O)c1ccccc1,-0.47
12,CCN(CC)C(=O)COC(=O)c1ccc(C)c(NC(=O)c2ccco2)c1,15.9
13,Cn1nc(-c2ccccc2)c(C(=O)NCC(=O)O)c1Cl,16.6
14,Cc1ccc(Oc2ccc(S(=O)(=O)N3CCOCC3)cc2C(N)=O)c(-n2nc3ccccc3n2)c1,-1.4
15,Cc1cccc(NC(=O)CSCC(=O)N2CCN(Cc3ccc4c(c3)OCO4)CC2)c1,7.37
16,COc1ccc(CCNC(=O)COC(=O)/C=C/c2ccc(OC)c(OC)c2)cc1,12.2
17,O=C(NCc1ccc2c(c1)OCO2)c1c[nH]c2ccc(S(=O)(=O)N3CCOCC3)cc2c1=O,-0.846
18,Cc1ccc(/C=C/C(=O)CCC(=O)O)cc1,12.7
19,CCCC1CCC(=C(C#N)C(N)=O)CC1 (centres unmarked),0.211
20,CCN(CC)S(=O)(=O)c1ccc(O)c(NC(=O)c2ccc(N3CCOCC3)c([N+](=O)[O-])c2)c1,6.35
21,CC(C)(C)C(=O)Nc1nc(NC(=O)C(C)(C)C)nc(-c2ccccc2Cl)n1,13.9
22,CC1COc2ccccc2N1S(=O)(=O)c1ccc(Cl)cc1 (centres unmarked),0.0956
23,CCc1ccc(CN2CCN(Cc3ccc(SC)cc3)CC2)cc1.O=C(O)C(=O)O,-27.1

row,Compound,"hERG current change (%, negative = inhibition) at 1uM [%]"
1,O=C(/C=C/c1ccccc1)OCc1cnc(Cl)s1,9.35
2,Cc1[nH]c2ccccc2c1CCO,6.26
3,CCN1C(=O)[C@H]2[C@@H](c3ccc(-c4ccc(Cl)c(Cl)c4)cc3)N3CCCC[C@@]3(C(=O)OC)[C@H]2C1=O.O=C(O)C(F)(F)F,21.3
4,ClC1(Cl)CC1Cn1c(C2CC2)nc2ccccc21 (centres unmarked),13.2
5,O=C(c1ccco1)N1CCN(C(=O)C2CCN(S(=O)(=O)Cc3ccccc3)CC2)CC1,8.18
6,Cc1cccc(N2CCN(c3nc4ccc(Cl)cc4n4cnnc34)CC2)c1C,11.9
7,COc1ccc(NC(=O)c2ccc3nccnc3c2)cc1,15.1
8,Cc1cc(C)c2c(N)c(C(=O)N3CCCCCC3)sc2n1,-7.9
9,COc1ccc(NC(=O)Nc2ccc(OCc3ccccc3)cc2)cn1,15
10,O=C(O)C1=C[C@@H](C2CCCCC2)C[C@@H](OCCCCO)O1,8.45
11,Cc1cc(C2(c3ccc(O)c(C)c3)C(=O)Nc3ccccc32)ccc1O,-2.76
12,Br.N=C1c2ccccc2CN1NC(=O)c1ccc(F)cc1,6.74
13,O=C(NNC(=O)c1ccc2ccccc2n1)c1ccc(O)cc1,7.06
14,Cc1ccc(C(=O)N2CCN(S(=O)(=O)c3ccccc3[N+](=O)[O-])CC2)o1,4.89
15,COc1ccc(-c2nc(N)nc(N)n2)c(O)c1,10.1
16,COc1ccc(C(=O)OC2C[C@H]3CC[C@H](C2)N3C)cc1OC.Cl (some centres unmarked),11.1
17,C/C(=N\Nc1ccc(S(N)(=O)=O)cc1[N+](=O)[O-])c1ccco1,10.3
18,C=C(C)c1cccc(C(C)(C)NC(=O)NC(c2ccccc2)c2ccc(OC)cc2)c1 (centres unmarked),-5.4
19,O=C(NCC1CCCO1)C1CCN(C(=O)c2ccc(Cl)cc2)CC1 (centres unmarked),-4.16
20,Cc1cccc(-n2cc(CN3CCN(Cc4nccn4C)CC3)c(-c3cccc(F)c3)n2)c1,6.11
